Reference: the supplement of paper PMC11417369
± gives the standard deviation of the averaged measurements. The list shows a part of the results.

Tested on: PfAP2-G AP2 domain (GST-tagged)
Test: gcPBM binding intensity (ln(normalized median fluorescence intensity)); higher = stronger DNA binding
Outline: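 DNA-binding domains from P. falciparum, fused to GST and produced in E. coli, were put on an Agilent 4 × 180k double-stranded probe array for 1 h in 1× PBS holding 1% milk, 0.2 mg/ml BSA, 0.5% salmon testes DNA and 0.03% Triton X-100. Probes were primer-extended, 36 bp long and drawn from intergenic genomic regions, with negative controls included. After Alexa488 anti-GST antibody detection and a 488 nm scan, binding intensity was set as the highest Masliner-normalised natural-log median intensity across replicate spots of either probe orientation.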

Sequence	gcPBM binding intensity (ln)
TGCATATACATATGTAGTACAATAATTTGAAAAAAA [XGTACX_site5239]	11.5 ± 1
TTTCCATATATAGAACGTACAAAGATCTTTGTTACT [XGTACX_site8972]	11.1 ± 0.61
ATACATATATATATGTGTACATATTATATATACATA [XGTACX_site8420]	11.3 ± 0.83
TTTTGTATTTATGGATGTACATAATATGTTTTAAAC [XGTACX_site3278]	11.3 ± 0.69
TATGTATGTATTAATGCGCACACAAAAAATAACAAT [CACACA_site8551]	10.8 ± 0.42
AAAAATTAAATATAAAGTACAAAATTAAAATCTTAA [XGTACX_site931]	10.9 ± 0.62
TTATTATTTTATAACACACACATATAGATTATAGCT [CACACA_site6787]	9.935 ± 0.064
ATATATATATATATAAAGTGAAGTATGAGGGAAATA [XGTACX_negctrl_site497]	10.1 ± 0.27
ATTTTCTTTTCCATAGTGCAATATAATTATCCATCA [GTGCAC_site9547]	10.2 ± 0.11
TTTCGTAACTATTTGTGTACATATATATATATATAT [XGTACX_site2920]	11.4 ± 0.83
ATAAATATATGAAATATACACACTTCTTTGGTATTA [CACACA_site456]	9.68 ± 0.18
TATTATATATTAAATGCATGTAAAAATAATATTAAA [TGCATGCA_site643]	9.94 ± 0.25
ATATTATAATAAATGTGTACATATTGTAGAAATATT [XGTACX_site8101]	11.4 ± 0.83
AATTATTTACCCTATACACACAAAACACGCTAAAAA [CACACA_site1211]	10.3 ± 0.28
AAAGAGAGTATCTAATGTACGTATGTATGTATATAT [XGTACX_site1780]	11.4 ± 0.88
ATTTTGTGCGCACACACATGCAAAAAGAAATATGAT [TGCATGCA_site261]	10.8 ± 0.46
TCTGTAAATACGTGCACACACAAATCACAAATGTGA [CACACA_site330]	10.7 ± 0.52
TAAATAATTTCACGAATGACAAAGATATAATAAGTT [CACACA_negctrl_site1430]	9.93 ± 0.11
TAAAGGTGAACAATACGTACATAAGAACTTATGAGG [XGTACX_site4216]	11.5 ± 0.91
ATCGTGAATAATATCTGTACATATGAACACATATAT [XGTACX_site952]	11.1 ± 0.6
TATGACCTTAGAAATTGTACAAGAAAAAATGTTACA [XGTACX_site7084]	11 ± 0.55
ATATAAAATACATGGGTGCAATATATTAAACAAATA [GTGCAC_site9421]	10.2 ± 0.11

Sequence	gcPBM binding intensity (ln)
GTTATAAATAAATACACACATACAAAAATATGACGT [CACACA_site1154]	10.11 ± 0.071
TCACATACATGAAAATGTACTTTTATAATTCCATAA [XGTACX_site1836]	11.1 ± 0.74
ATAAATACACACAAGTGTACATACTTCTATAAATAT [XGTACX_site1845]	11.3 ± 0.96
TTTTTTTTTTTTGGATGTACTTAATGAAAATGTTAC [XGTACX_site8980]	11.1 ± 0.94
TAAGCACAAGCACAAGCACACATTTATATATATATA [CACACA_site883]	10 ± 0.28
ATTTTATTTTTTCACACACACATATATATATATATA [CACACA_site3334]	10.2 ± 0.3
CCCAGGAATATAAAATGTACATAAAAAATACAAATT [XGTACX_site1708]	11.2 ± 0.67
AGTACATTATAGAATACACACCTATACATTTATATA [CACACA_site6391]	10.1 ± 0.028
TCTTTGTATATATGTTCATTTGTAATATATATTCAT [TGCATGCA_negctrl_site467]	9.7 ± 0.15
TATTTGTGAAGAAATTGTACTCATATCTACATTTAT [XGTACX_site2245]	11.3 ± 0.84
ATAATAATATAAAAATGTACATATATTTATAATTGT [XGTACX_site3429]	11.1 ± 0.59
ACATAATATTGAAGAAGTACAAATTTTATTTATTAT [XGTACX_site4113]	11.2 ± 0.73
ACGTTTTTGAGTAGTACACACACAATAAGGATGGAT [CACACA_site9044]	11.5 ± 0.97
ATGCAAACTAAAAGACGTACAGAAAAGTATCATACT [XGTACX_site8766]	11.6 ± 0.87
TGATTATTTTATATTTGTACACATATCATATAAAAA [XGTACX_site5868]	11.5 ± 1
ATGTATGTGTATATATGTACATAATATATATCTTTT [XGTACX_site8666]	11.2 ± 0.45
AATATAATATATATTAGTACATATATATATATATAT [XGTACX_site870]	11.1 ± 0.85
CCTCATATTATAGACACACACAAAAAAAATAAAAAA [CACACA_site180]	10.1 ± 0.33
TCATTATTATATAATTGTACATAATAATTATATCCA [XGTACX_site1801]	10.9 ± 0.68
GGAACCATCCAAAAAAAAAAAAAAAATAATAATAAT [CACACA_negctrl_site383]	9.515 ± 0.092
ACATGTACAGAAATTTATATATATATATATATATAT [CACACA_negctrl_site1584]	11.1 ± 0.8
TCTTCATATATAATTGTACACACAAAAACGACATTG [CACACA_site8645]	11.4 ± 0.94
